# The campaign covered roughly 320,000 compounds. About 9,100 (2.8%) were called active. The inconclusive results got no clear call from the source; some entries with a clear call stand among them for comparison. Calls follow the shape of the dose curve; as a rule, active = well fitted activation curve with a large enough effect; inconclusive = small, poorly fitted or top-dose-only effect; inactive = no such curve, though single readings can be large or run the other way. Potencies of inconclusive entries are left out as doubtful fits.
# Experiment: qHTS Assay for Rab9 Promoter Activators; also: nearly all actives have a fitted effect of over 60% in size; as to activation, negative = inhibition: % of control where 0% means no effect
# Conditions: Huh7 Rab9 promoter-luciferase reporter, luminescence, 24 h; series mostly up to 9.22 µM; activation, negative = inhibition: at the top concentration
# In short: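 Huh7 cells stably carrying a Rab9 promoter-luciferase reporter, 1500 cells per well in OP-MEM I with 10% FBS, treated with compound 24 hours at 37C. Luciferase activity read by luminescence after 10 minutes with Amplite reagent.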
# Potency is read from the fitted curve at half-maximal effect; tags tell the direction and shape of the fitted curve.
SMILES,Potency,"activation, negative = inhibition"
O=C(c1ccccc1)c1ccc(-c2ccc(O)cc2)cc1,active: 3.16 µM,
Cc1nn(CC(=O)NCCCc2ccccc2)c(C)c1[N+](=O)[O-],,inactive: -2.84%
Cc1ccc(OCC(=O)OCc2nc3scc(-c4ccccc4)c3c(=O)[nH]2)cc1C,,inactive: 3.86%
CSCCCc1cn([C@@H](CO)C(=O)NCCCCCCCCCCC(=O)N2CCNCC2)nn1,,inactive: -2.95%
C(=N\Nc1nc2ccccc2[nH]1)/c1ccc2c(c1)OCO2,active: 2 µM,
C=CCn1c(C)csc1=Nc1ccc(C(C)=O)cc1,"inconclusive [activator, single point]",
Cc1nc(-c2ccc(Cl)cc2)sc1C1(C)CC(c2c(Cl)cccc2Cl)=NO1 (configuration not stated),,inactive: -2.72%
COc1ccc(S(=O)(=O)N2CCOCC2)cc1NC(=O)COC(=O)C1CC1C (configuration not stated),,inactive: 0.763%
CCSc1nnc(NC(=O)c2ccc(C)o2)s1,"inconclusive [activator, single point]",
NC(=O)c1ccsc1NC(=O)c1cc(=O)c2ccccc2o1,active: 1.78 µM,
O=C(NC1CCCC1)c1noc2c1CCCCC2,"inconclusive [activator, single point]",
CCc1ccccc1NC(=O)c1cc(-c2ccc3c(c2)OCO3)on1,"inconclusive [activator, single point]",
CN(C)/C=C(\C#N)C(=O)Nc1ccc(F)c(Cl)c1,active: 3.16 µM,
CCOC(=O)c1csc(NC(=O)c2ccc3c(c2)OCCO3)n1,"inconclusive [activator, full curve]",
O=c1c(-c2ccc(O)cc2)coc2cc(O)ccc12,active: 10 µM,
CCN(CC)c1ccc(NC(=O)C2CCCC2)cc1,"inconclusive [activator, partial curve]",
Cn1ccnc1SCC(=O)c1ccc(OC(F)F)cc1,"inconclusive [activator, partial curve]",
COc1cc2ccccc2cc1C(=O)Nc1cccnc1,"inconclusive [activator, single point]",
COc1cc(N/N=C/c2ccc(N(C)C)cc2)ncn1,"inconclusive [activator, partial curve, poor fit]",
COc1ccccc1C(=O)Nc1cccc2cccnc12,"inconclusive [activator, single point]",
CCn1c(-c2ccc(F)cc2)cnc1SCC(=O)N1CCCCC1C (configuration not stated),"inconclusive [activator, single point]",
COc1cc(/C=N/NC(=O)c2cc(-c3c(C)nn(-c4ccccc4)c3C)n[nH]2)ccc1O,,inactive: 19.6%
COc1ccccc1NC(=O)Nc1nnc(C(C)C)s1,"inconclusive [activator, single point]",
O=C(/C=C/c1cccc(F)c1)c1ccc(N2CCOCC2)cc1,"inconclusive [activator, partial curve]",
Cc1ccc(-n2ncc3c(=O)n(CC(=O)Nc4cccc(Cl)c4)cnc32)cc1C,,inactive: 3.77%
COc1cccc(/C=N/NC(=S)Nc2cccc(C(=O)O)c2)c1,active: 3.16 µM,

SMILES,Potency,"activation, negative = inhibition"
COc1ccccc1-c1cnn2c(N3CCOCC3)cc(C)nc12,"inconclusive [activator, partial curve]",
COCCNC(=O)C(c1ccc(F)cc1)N(CCOC)C(=O)CCC(=O)Nc1ccccn1 (configuration not stated),,inactive: -3.48%
CC(C)(C)c1ccc(NC(=O)CSc2nnc(-c3n[nH]c4ccccc34)o2)cc1,"inconclusive [activator, full curve, poor fit]",
Cc1ccccc1-c1nnc(-c2ccc(Br)cc2)o1,"inconclusive [activator, single point]",
Cc1ccc(C(=O)NCCOc2cccc(C)c2)cc1,,inactive: 26.6%
Cc1ccccc1C(=O)Nc1ccc(N2CCCC2)cc1,"inconclusive [activator, partial curve]",
Cc1ccc(/C=C2/NC(=O)N(c3ccccc3)C2=O)o1,"inconclusive [activator, single point]",
COc1cc(/C=C/C(=O)NC(=O)c2ccccc2O)ccc1OC(C)=O,"inconclusive [activator, partial curve]",
CCc1ccc(NC(=O)C2CCCN2S(=O)(=O)c2ccc3c(c2)C(C)(C)C(=O)N3C)cc1 (configuration not stated),,inactive: 5.73%
Cc1ccc(CNC(=O)Nc2ccc(F)cc2)n1C,,inactive: 15.4%
Cc1ccc2nc(Nc3ccc4[nH]c(=O)[nH]c4c3)c(-n3nc(C)cc3C)nc2c1,"inconclusive [activator, single point]",
Cc1cc(C)c2sc(N(CCN(C)C)C(=O)c3cc(Cl)sc3Cl)nc2c1,"inconclusive [activator, single point]",
CCCc1c(C(=O)N/N=C/c2cccs2)nnn1-c1nonc1N,"inconclusive [activator, single point]",
Cc1cc(C(=O)NCc2csc(-c3ccccc3)n2)no1,"inconclusive [activator, single point]",
CN(C)S(=O)(=O)c1ccc(C(=O)NCCc2ccco2)cc1,"inconclusive [activator, single point]",
Cc1ccccc1-c1cc2nc(C)c(C)c(=O)n2[nH]1,"inconclusive [activator, partial curve]",
O=C1c2ccccc2NC(c2ccccc2O)N1c1ccc(F)cc1 (configuration not stated),active: 3.98 µM,
COc1ccc(C(=O)Nc2ccccc2C(=O)Nc2ccccc2C(=O)O)cc1,active: 2.82 µM,
CCNC(=O)COC(=O)c1cc(C)n(-c2ccccc2)c1C,"inconclusive [activator, single point]",
CCc1nnc(NC(=O)c2cc(Cl)ccn2)s1,active: 2.51 µM,
CCOC(=O)Cc1nc(-c2ccc(Cl)cc2)n[nH]1,"inconclusive [activator, single point]",
c1ccc(-c2cccc(-c3ccccc3)n2)cc1,"inconclusive [activator, single point]",
O=C(NCc1csc(-c2ccccc2)n1)c1cc(F)cc2c1OCOC2,"inconclusive [activator, partial curve]",
Cc1occc1C(=O)NNC(=O)C1CC1,,inactive: -8.76%
CC(Oc1ccc(Br)cc1)C(=O)Nc1cc(Cl)ccc1N1CCN(C)CC1 (configuration not stated),,inactive: 0.362%
O=C(Nc1ccc(NC(=O)c2ccccc2)nc1)c1ccncc1,"inconclusive [activator, partial curve]",

SMILES,Potency,"activation, negative = inhibition"
O=C(COc1ccc(Cl)cc1)c1ccc(O)cc1O,"inconclusive [activator, single point]",
O=c1cc(CO)occ1OCc1c(F)cccc1Cl,"inconclusive [activator, single point]",
Oc1ccc(Nc2nnc(-c3ccc(O)cc3)c3ccccc23)cc1,,inactive: -2.12%
O=C(Nc1ccc(NC(=O)c2cccs2)c(Cl)c1)c1ccco1,,inactive: -4.69%
CC1CCC(=C(C#N)c2nc(-c3cc4ccccc4oc3=O)cs2)CC1 (configuration not stated),active: 3.98 µM,
CCOC(=O)c1c(C)[nH]c(C(=O)C(C)Sc2ccc(Cl)cc2)c1C (configuration not stated),"inconclusive [activator, single point]",
COc1ccc(CN2CCN(C(=O)c3ccc(-c4ccccc4)cc3)CC2)c(OC)c1OC,,inactive: -7.05%
COCCNC(=O)c1ccc(NS(=O)(=O)c2ccc3[nH]c(=O)[nH]c3c2)cc1,,inactive: 6.94%
CCCC(=O)Nc1nnc(SCC(=O)NCc2ccc3c(c2)OCO3)s1,,inactive: -2.2%
CCc1ccccc1Nc1ccc(C(=O)O)cc1N,"inconclusive [activator, partial curve]",
O=C(COC(=O)Cn1[nH]c(=O)c2ccccc2c1=O)NNC(=O)c1ccccc1,,inactive: -2.78%
Cc1ccc(Cn2ccc(NC(=O)c3nn(C)cc3[N+](=O)[O-])n2)cc1,,inactive: -0.784%
Cc1ccc(N=C2NC(=O)/C(=C/c3cccn3C)S2)cc1C,"inconclusive [activator, partial curve]",
COc1ccc(NC(=O)CSc2nccn2Cc2ccco2)c(OC)c1,"inconclusive [activator, single point]",
O=C(Nc1cc(Br)ccc1O)c1cnn2c(C(F)F)cc(C3CC3)nc12,,inactive: 12%
CSc1ccc(/C=N/n2c(C)cc(C)cc2=O)cc1,active: 2.82 µM,
COc1ccc2c(c1)CCc1c(C(=O)N3CCCC3)noc1-2,"inconclusive [activator, single point]",
CC(C)CC(=O)Nc1ccc(-c2nnn(CC(=O)NCc3ccco3)n2)cc1,"inconclusive [activator, partial curve]",
CC(=O)NC(CCS(C)(=O)=O)C(=O)Nc1c(C)cccc1C (configuration not stated),"inconclusive [activator, partial curve]",
Cc1ccc(C2CCN(C(=O)Nc3ccc(F)cc3)C2)cc1 (configuration not stated),"inconclusive [activator, single point]",
S=C(Nc1ccc(Cl)cc1)Nc1ccc2c(c1)OCCO2,"inconclusive [activator, partial curve]",
O=C(CN1CCN(c2ccccc2O)CC1)Nc1ccc2c(c1)CCC2,,inactive: -3.31%
O=S(=O)(c1ccccc1)n1ccc(-c2cnc(-c3ccccc3)s2)n1,"inconclusive [activator, partial curve]",
N#Cc1ccc(N2Cc3ccccc3C2=NC(=O)c2cccnc2Cl)cc1,"inconclusive [activator, single point]",
Cc1ccc(Nc2nnc(SCC3CCCCO3)s2)cc1 (configuration not stated),"inconclusive [activator, single point]",

# From PubChem BioAssay AID485297 (National Center for Advancing Translational Sciences (NCATS), 2010)
